Part of at least one peptide drawing is inferred or uncertain, most often the ends. Numbered stars: 1 amine (or outer) side, 2 acyl side, 3 side chain; on linkers, the order of the positions; unused ones are H or OH. Bridge positions count the residues as written; N and C are the ends. Square brackets hold non-standard residues; d marks the D form. Peptide text beside a SMILES is read from it. X4 = CC(C)c1cccc2c(C[C@H](N[*:1])C(=O)[*:2])c[nH]c12; Trp(7-Me) = Cc1cccc2c(C[C@H](N)C(=O)O)c[nH]c12; Trp(1-Me) = Cn1cc(C[C@H](N)C(=O)O)c2ccccc21; Abu(4-yl) = O=C([C@H](CC[*:3])N[*:1])[*:2]; 2Nal = N[C@@H](Cc1ccc2ccccc2c1)C(=O)O; AEF = NCCOc1ccc(C[C@H](N)C(=O)O)cc1; Cit = NC(=O)NCCC[C@H](N)C(=O)O; αMeL = CC(C)C[C@](C)(N)C(=O)O; Pen = CC(C)(S)[C@H](N)C(=O)O; αMeK = C[C@](N)(CCCCN)C(=O)O; βAla = NCCC(=O)O
What was measured:
[1] = tested on: Natural killer (NK) cells; assay: NK cell based assay (IL-23-induced IFNγ); details: primary human NK cells, IL-23 plus IL-18 10 ng/mL, IFNγ in supernatant after 20 to 24 hours
Description: Natural killer (NK) cells, purified from human peripheral blood of healthy donors by negative selection (Miltenyi Biotech, Cat #130-092-657), were cultured in complete media (RPMI 1640 containing 10% FBS, L-glutamine and penicillin-streptomycin) in the presence of IL-2 (RnD, Cat #202-IL-010/CF) at 25 ng/mL. After 7 days, cells were centrifuged, and resuspended in complete media at 1E6 cells/mL. […] After 20 to 24 hours, IFNγ in the supernatant was quantified using Quantikine ELISA (RnD, Cat #DIF50).

[2] = target: IL-23R-expressing DB cells (Homo sapiens, UniProt Q5VWK5); assay: DB cells IL23R pSTAT3 cell assay (pStat3HTRF); type: cell-based; details: DB cells stimulated with IL-23 0.5 nM, 30 minutes, phospho-STAT3 in cell lysates; read-out: pStat3 HTRF
IL-23R-expressing DB cells, sequence (Q5VWK5 24-629 limits assumed): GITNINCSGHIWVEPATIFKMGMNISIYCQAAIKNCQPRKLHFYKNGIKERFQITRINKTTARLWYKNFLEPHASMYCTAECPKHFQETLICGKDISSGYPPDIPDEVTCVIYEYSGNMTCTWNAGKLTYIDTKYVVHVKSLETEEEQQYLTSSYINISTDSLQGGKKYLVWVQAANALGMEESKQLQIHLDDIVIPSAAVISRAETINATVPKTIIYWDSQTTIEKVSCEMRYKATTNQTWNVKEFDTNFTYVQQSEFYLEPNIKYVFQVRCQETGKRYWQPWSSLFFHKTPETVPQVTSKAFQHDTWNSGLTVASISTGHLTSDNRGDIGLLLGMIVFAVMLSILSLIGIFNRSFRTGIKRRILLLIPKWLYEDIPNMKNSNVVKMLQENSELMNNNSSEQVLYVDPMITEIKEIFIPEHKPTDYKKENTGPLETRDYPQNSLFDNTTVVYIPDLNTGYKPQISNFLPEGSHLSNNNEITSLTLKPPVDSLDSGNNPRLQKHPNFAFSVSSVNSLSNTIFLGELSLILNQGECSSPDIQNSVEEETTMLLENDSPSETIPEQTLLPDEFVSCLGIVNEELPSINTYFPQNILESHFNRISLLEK

Row | Structure (SMILES) | IC50 [1] [nM] | IC50 [2] [nM]
1 | CC(=O)NCCCC[C@@H]1NC(=O)[C@H](Cc2c[nH]c3c(C)cccc23)NC(=O)[C@H]([C@@H](C)O)NC(=O)[C@H](CC(N)=O)NC(=O)[C@@H](NC(C)=O)C(C)(C)SSC(C)(C)[C@@H](C(=O)N[C@@H](Cc2ccc(OCCN)cc2)C(=O)N[C@@H](Cc2ccc3ccccc3c2)C(=O)N[C@@](C)(CCCCN)C(=O)N[C@@H](CCCCNC(C)=O)C(=O)N[C@@H](CC(N)=O)C(=O)N[C@H](Cc2ccccc2)C(N)=O)NC1=O [compound 258] | 9.7 | 
2 | CC(=O)NCCCC[C@H](NC(=O)[C@](C)(CC(C)C)NC(=O)[C@H](Cc1ccc2ccccc2c1)NC(=O)[C@H](Cc1ccc(OCCN)cc1)NC(=O)[C@H]1NC(=O)[C@H](CCCNC(N)=O)NC(=O)[C@H](Cc2c[nH]c3c(C)cccc23)NC(=O)[C@H]([C@@H](C)O)NC(=O)[C@H](CC(N)=O)NC(=O)[C@@H](NC(C)=O)C(C)(C)SSC1(C)C)C(=O)N[C@@H](CC(N)=O)C(=O)NCCC(N)=O [compound 227] (Ac-[Pen]NT[Trp(7-Me)][Cit][Pen][AEF][2Nal][αMeL]K(Ac)N[βAla]-NH2; disulfide 1-6) | 2.95 | 
3 | CC(=O)NCCCC[C@@H]1NC(=O)[C@H](Cc2c[nH]c3c(C)cccc23)NC(=O)[C@H]([C@@H](C)O)NC(=O)[C@H](CCC(N)=O)NC(=O)[C@@H](NC(=O)[C@@H](CCCNC(=N)N)NC(C)=O)CCSC[C@@H](C(=O)N[C@@H](Cc2ccc(OCCN)cc2)C(=O)N[C@@H](Cc2ccc3ccccc3c2)C(=O)N[C@@](C)(CCCCN)C(=O)N[C@@H](CCCCNC(C)=O)C(=O)N[C@@H](CC(N)=O)C(=O)N[C@H](CC(C)C)C(N)=O)NC1=O [compound 325] (Ac-[dR][Abu(4-yl)]QT[Trp(7-Me)]K(Ac)C[AEF][2Nal][αMeK]K(Ac)N[dL]-NH2; thioether 2-7) | 12.7 | 
4 | CC(=O)NCCCC[C@@H]1NC(=O)[C@H](Cc2c[nH]c3c(C)cccc23)NC(=O)[C@H]([C@@H](C)O)NC(=O)[C@H](CC(N)=O)NC(=O)[C@@H](NC(C)=O)C(C)(C)SSC(C)(C)[C@@H](C(=O)N[C@@H](Cc2ccc(OCCN)cc2)C(=O)N[C@@H](Cc2ccc3ccccc3c2)C(=O)N[C@@](C)(CCCCN)C(=O)N[C@@H](CCCCNC(C)=O)C(=O)NCCC(=O)NCCC(N)=O)NC1=O [compound 270] |  | 4.43
5 | CC(=O)NCCCC[C@H](NC(=O)[C@](C)(CCCCN)NC(=O)[C@H](Cc1ccc2ccccc2c1)NC(=O)[C@H](Cc1ccc(OCCN)cc1)NC(=O)[C@H]1NC(=O)[C@H](CCC(N)=O)NC(=O)[C@H](Cc2c[nH]c3cc(C)ccc23)NC(=O)[C@H]([C@@H](C)O)NC(=O)[C@H](CC(N)=O)NC(=O)[C@@H](NC(C)=O)C(C)(C)SSC1(C)C)C(=O)N[C@@H](CC(N)=O)C(=O)NCCC(N)=O [compound 230] |  | 25
6 | CC(=O)NCCCC[C@@H]1NC(=O)[C@H](Cc2c[nH]c3c(C)cccc23)NC(=O)[C@H]([C@@H](C)O)NC(=O)[C@@H](CC(N)=O)NC(=O)[C@@H](NC(C)=O)C(C)(C)SSC(C)(C)[C@@H](C(=O)N[C@@H](Cc2ccc(OCCN)cc2)C(=O)N[C@@H](Cc2ccc3ccccc3c2)C(=O)N[C@@](C)(CCCCN)C(=O)N[C@@H](CCCCNC(C)=O)C(=O)N[C@@H](CC(N)=O)C(=O)N[C@H](CC(C)C)C(N)=O)NC1=O [compound 338] |  | 41.8
7 | CCC(CC)(NC(=O)[C@H](Cc1ccc2ccccc2c1)NC(=O)[C@H](Cc1ccc(OCCN)cc1)NC(=O)[C@H]1NC(=O)[C@H](CCC(N)=O)NC(=O)[C@H](Cc2c[nH]c3c(C)cccc23)NC(=O)[C@H]([C@@H](C)O)NC(=O)[C@H](CC(N)=O)NC(=O)[C@@H](NC(C)=O)C(C)(C)SSC1(C)C)C(=O)N[C@@H](CCCCNC(C)=O)C(=O)N[C@@H](CC(N)=O)C(=O)NCCC(N)=O [compound 276] |  | 0.564
8 | CC(=O)NCCCC[C@H](NC(=O)[C@](C)(CCCN)NC(=O)[C@H](Cc1ccc2ccccc2c1)NC(=O)[C@H](Cc1ccc(OCCN)cc1)NC(=O)[C@H]1NC(=O)[C@H](CCC(N)=O)NC(=O)[C@H](Cc2c[nH]c3c(C)cccc23)NC(=O)[C@H]([C@@H](C)O)NC(=O)[C@H](CC(N)=O)NC(=O)[C@@H](NC(C)=O)C(C)(C)SSC1(C)C)C(=O)N[C@@H](CC(N)=O)C(=O)NCCC(N)=O [compound 278] |  | 0.849
9 | CC(=O)N[C@@H]1C(=O)N[C@@H](CC(N)=O)C(=O)N[C@@H]([C@@H](C)O)C(=O)N[C@@H](Cc2c[nH]c3c(C)cccc23)C(=O)N[C@@H](CCC(N)=O)C(=O)N[C@H](C(=O)N[C@@H](Cc2ccc(OCCN)cc2)C(=O)N[C@@H](Cc2ccc3ccccc3c2)C(=O)N[C@@](C)(CC(C)C)C(=O)NCC(=O)N2CCC[C@H]2C(=O)NCCC(N)=O)C(C)(C)SSC1(C)C [compound 219] |  | 93.7
10 | CC(=O)NCCCC[C@@H]1NC(=O)[C@H](Cc2c[nH]c3c(C(C)C)cccc23)NC(=O)[C@H]([C@@H](C)O)NC(=O)[C@H](CC(N)=O)NC(=O)[C@@H](NC(C)=O)C(C)(C)SSC(C)(C)[C@@H](C(=O)N[C@@H](Cc2ccc(OCCN)cc2)C(=O)N[C@@H](Cc2ccc3ccccc3c2)C(=O)N[C@@](C)(CCCCN)C(=O)N[C@@H](CCCCNC(C)=O)C(=O)N[C@@H](CC(N)=O)C(=O)N[C@H](CC(C)C)C(N)=O)NC1=O [compound 286] (Ac-[Pen]NT[X4]K(Ac)[Pen][AEF][2Nal][αMeK]K(Ac)N[dL]-NH2; disulfide 1-6) |  | 1.61
11 | CC[C@H](C)[C@H](NC(=O)[C@H](CC(N)=O)NC(=O)[C@H](CCCCNC(C)=O)NC(=O)[C@](C)(CCCCN)NC(=O)[C@H](Cc1ccc2ccccc2c1)NC(=O)[C@H](Cc1ccc(OCCN)cc1)NC(=O)[C@H]1NC(=O)[C@H](CCCCNC(C)=O)NC(=O)[C@H](Cc2c[nH]c3c(C)cccc23)NC(=O)[C@H]([C@@H](C)O)NC(=O)[C@H](CC(N)=O)NC(=O)[C@@H](NC(C)=O)C(C)(C)SSC1(C)C)C(N)=O [compound 255] |  | 2.5
12 | CC(=O)NCCCC[C@H](NC(=O)[C@](C)(CCCCN)NC(=O)[C@H](Cc1ccc2ccccc2c1)NC(=O)[C@H](Cc1ccc(OCCN)cc1)NC(=O)[C@H]1NC(=O)[C@H](CCCCNC(=O)CC(C)C)NC(=O)[C@H](Cc2c[nH]c3c(C)cccc23)NC(=O)[C@H]([C@@H](C)O)NC(=O)[C@H](CC(N)=O)NC(=O)[C@@H](NC(C)=O)C(C)(C)SSC1(C)C)C(=O)N[C@@H](CC(N)=O)C(=O)N[C@H](CC(C)C)C(N)=O [compound 315] |  | 1.41
13 | CC(=O)N[C@@H]1C(=O)N[C@@H](CC(N)=O)C(=O)N[C@@H]([C@@H](C)O)C(=O)N[C@@H](Cc2c[nH]c3c(C)cccc23)C(=O)N[C@@H](CCC(N)=O)C(=O)N[C@H](C(=O)N[C@@H](Cc2ccc(OCCN)cc2)C(=O)N[C@@H](Cc2ccc3ccccc3c2)C(=O)N[C@@](C)(CCCCN)C(=O)N[C@@H](CCCNC(N)=O)C(=O)NCCC(=O)NCCC(N)=O)C(C)(C)SSC1(C)C [compound 279] |  | 5.97
14 | CC(=O)NCCCC[C@H](NC(=O)[C@](C)(CCCCN)NC(=O)[C@H](Cc1ccc2ccccc2c1)NC(=O)[C@H](Cc1ccc(OCCN)cc1)NC(=O)[C@H]1NC(=O)[C@H](CCCNC(N)=O)NC(=O)[C@H](Cc2cn(C)c3ccccc23)NC(=O)[C@H]([C@@H](C)O)NC(=O)[C@H](CC(N)=O)NC(=O)[C@@H](NC(C)=O)C(C)(C)SSC1(C)C)C(=O)NCCC(=O)NCCC(N)=O [compound 280] (Ac-[Pen]NT[Trp(1-Me)][Cit][Pen][AEF][2Nal][αMeK]K(Ac)[βAla][βAla]-NH2; disulfide 1-6) |  | 17.1
15 | CC(=O)NCCCC[C@@H]1NC(=O)[C@H](Cc2c[nH]c3c(C)cccc23)NC(=O)[C@H]([C@@H](C)O)NC(=O)[C@H](CC(N)=O)NC(=O)[C@@H](NC(C)=O)C(C)(C)SSC(C)(C)[C@@H](C(=O)N[C@@H](Cc2ccc(OCCN)cc2)C(=O)N[C@@H](Cc2ccc3ccccc3c2)C(=O)N[C@@](C)(CCCCN)C(=O)N[C@@H](CCCCNC(C)=O)C(=O)N[C@@H](Cc2c[nH]cn2)C(=O)NCCC(N)=O)NC1=O [compound 272] |  | 7.13
16 | CC(=O)NCCCC[C@H](NC(=O)[C@](C)(CCCCN)NC(=O)[C@H](Cc1ccc2ccccc2c1)NC(=O)[C@H](Cc1ccc(OCCN)cc1)NC(=O)[C@H]1NC(=O)[C@H](CCCCNC(=O)CC(F)(F)F)NC(=O)[C@H](Cc2c[nH]c3c(C)cccc23)NC(=O)[C@H]([C@@H](C)O)NC(=O)[C@H](CC(N)=O)NC(=O)[C@@H](NC(C)=O)C(C)(C)SSC1(C)C)C(=O)N[C@@H](CC(N)=O)C(=O)N[C@H](CC(C)C)C(N)=O [compound 319] |  | 0.714
17 | COc1cccc2c(C[C@@H]3NC(=O)[C@H]([C@@H](C)O)NC(=O)[C@H](CC(N)=O)NC(=O)[C@@H](NC(C)=O)C(C)(C)SSC(C)(C)[C@@H](C(=O)N[C@@H](Cc4ccc(OCCN)cc4)C(=O)N[C@@H](Cc4ccc5ccccc5c4)C(=O)N[C@@](C)(CCCCN)C(=O)N[C@@H](CCCCNC(C)=O)C(=O)N[C@@H](CC(N)=O)C(=O)N[C@H](CCCCN)C(N)=O)NC(=O)[C@H](CCCCNC(C)=O)NC3=O)c[nH]c12 [compound 299] |  | 2.86
18 | CC(=O)NCCCC[C@H](NC(=O)[C@](C)(CCCCN)NC(=O)[C@H](Cc1ccc2ccccc2c1)NC(=O)[C@H](Cc1ccc(OCCN)cc1)NC(=O)[C@H]1NC(=O)[C@H](CCC(N)=O)NC(=O)[C@H](Cc2c[nH]c3ccc(C#N)cc23)NC(=O)[C@H]([C@@H](C)O)NC(=O)[C@H](CC(N)=O)NC(=O)[C@@H](NC(C)=O)C(C)(C)SSC1(C)C)C(=O)N[C@@H](CC(N)=O)C(=O)N[C@H](CCCCN)C(N)=O [compound 296] |  | 6.29
19 | CC(=O)NCCCC[C@H](NC(=O)[C@](C)(CCCCN)NC(=O)[C@H](Cc1ccc2ccccc2c1)NC(=O)[C@H](Cc1ccc(OCCN)cc1)NC(=O)[C@H]1NC(=O)[C@H](CCC(N)=O)NC(=O)[C@H](Cc2c[nH]c3c(C)cccc23)NC(=O)[C@H]([C@@H](C)O)NC(=O)[C@H](CC(N)=O)NC(=O)[C@@H](NC(C)=O)C(C)(C)SSC1(C)C)C(=O)N[C@@H](CC(C)C)C(=O)NCCC(N)=O [compound 269] |  | 10.1

Reference: US11041000B2, “Peptide inhibitors of interleukin-23 receptor and their use to treat inflammatory diseases” (priority 2019, dated 2021)
